Measurements: publication PMC8983325 (Protein & Cell, 2022)

Conditions: when >10 µmol/L was utilized

Question: Which cytotoxicity does the source give for `Cc1cccc(NC(=O)c2sc(=S)n3c2[nH]c(=O)c2cc4c(cc23)OCO4)c1` [F0393] here?
Answer: considerable cytotoxicity
